# Measurements: PMC9911399, “Two distinct binding modes provide the RNA-binding protein RbFox with extraordinary sequence specificity”
# Changes are numbered by the printed parent chain; changes in the protein carry UniProt numbers. The list shows a part of the results.
# T1: RBFOX1 RRM RbFoxmut (Fox-RRM*) (Homo sapiens, UniProt Q9NWB1 109-208, R118D;E147R;N151S;E152T)
# T1 sequence: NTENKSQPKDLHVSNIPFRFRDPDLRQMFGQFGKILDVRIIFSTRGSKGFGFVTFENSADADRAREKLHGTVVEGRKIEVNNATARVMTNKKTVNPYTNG
# B1: GCAAAUU (DNA:RNA)
# RNA: GGGAGACCGGAAUUCAGAUUGUCCGCAAAUUUUAAAUCCCGUCGUAGCCACCA
# DNA 1: CAATCTGAATTCCGGTCTCCC
# DNA 2: TGGTGGCTACGACGGGATT
# B2: AUAUAAU (DNA:RNA)
# RNA: B1 RNA with G25A, C26U, A28U, U30A
# DNA 1: CAATCTGAATTCCGGTCTCCC
# DNA 2: TGGTGGCTACGACGGGATT
# B3: AUUCUCC (DNA:RNA)
# RNA: GGGAGACCGGAAUUCAGAUUGUCCAUUCUCCUUAAAUCCCGUCGUAGCCACCA
# DNA 1: CAATCTGAATTCCGGTCTCCC
# DNA 2: TGGTGGCTACGACGGGATT
# B4: AGGACGC (DNA:RNA)
# RNA: B3 RNA with U26G, U27G, C28A, U29C, C30G
# DNA 1: CAATCTGAATTCCGGTCTCCC
# DNA 2: TGGTGGCTACGACGGGATT
# B5: AUGAUUG (DNA:RNA)
# RNA: B3 RNA with U27G, C28A, C30U, C31G
# DNA 1: CAATCTGAATTCCGGTCTCCC
# DNA 2: TGGTGGCTACGACGGGATT
# B6: CCGAAGU (DNA:RNA)
# RNA: B1 RNA with G25C, A27G, U30G
# DNA 1: CAATCTGAATTCCGGTCTCCC
# DNA 2: TGGTGGCTACGACGGGATT
# B7: CUAAAUG (DNA:RNA)
# RNA: B1 RNA with G25C, C26U, U31G
# DNA 1: CAATCTGAATTCCGGTCTCCC
# DNA 2: TGGTGGCTACGACGGGATT
# B8: UUAGGGU (DNA:RNA)
# RNA: B1 RNA with G25U, C26U, A28G, A29G, U30G
# DNA 1: CAATCTGAATTCCGGTCTCCC
# DNA 2: TGGTGGCTACGACGGGATT
# B9: CGAUUCG (DNA:RNA)
# RNA: B3 RNA with A25C, U26G, U27A, C28U, C31G
# DNA 1: CAATCTGAATTCCGGTCTCCC
# DNA 2: TGGTGGCTACGACGGGATT
# B10: CCGGUGC (DNA:RNA)
# RNA: B3 RNA with A25C, U26C, U27G, C28G, C30G
# DNA 1: CAATCTGAATTCCGGTCTCCC
# DNA 2: TGGTGGCTACGACGGGATT
# B11: ACGAGAU (DNA:RNA)
# RNA: B1 RNA with G25A, A27G, A29G, U30A
# DNA 1: CAATCTGAATTCCGGTCTCCC
# DNA 2: TGGTGGCTACGACGGGATT
# B12: ACCACUC (DNA:RNA)
# RNA: B1 RNA with G25A, A27C, A29C, U31C
# DNA 1: CAATCTGAATTCCGGTCTCCC
# DNA 2: TGGTGGCTACGACGGGATT
# B13: GACUGGG (DNA:RNA)
# RNA: B1 RNA with C26A, A27C, A28U, A29G, U30G, U31G
# DNA 1: CAATCTGAATTCCGGTCTCCC
# DNA 2: TGGTGGCTACGACGGGATT
# B14: ACAGACG (DNA:RNA)
# RNA: B1 RNA with G25A, A28G, U30C, U31G
# DNA 1: CAATCTGAATTCCGGTCTCCC
# DNA 2: TGGTGGCTACGACGGGATT
# B15: UCGCUUC (DNA:RNA)
# RNA: B3 RNA with A25U, U26C, U27G, C30U
# DNA 1: CAATCTGAATTCCGGTCTCCC
# DNA 2: TGGTGGCTACGACGGGATT
# B16: ACCGUGG (DNA:RNA)
# RNA: B3 RNA with U26C, U27C, C28G, C30G, C31G
# DNA 1: CAATCTGAATTCCGGTCTCCC
# DNA 2: TGGTGGCTACGACGGGATT
# B17: UGAUCAC (DNA:RNA)
# RNA: B3 RNA with A25U, U26G, U27A, C28U, U29C, C30A
# DNA 1: CAATCTGAATTCCGGTCTCCC
# DNA 2: TGGTGGCTACGACGGGATT
# B18: AAUAGCA (DNA:RNA)
# RNA: B3 RNA with U26A, C28A, U29G, C31A
# DNA 1: CAATCTGAATTCCGGTCTCCC
# DNA 2: TGGTGGCTACGACGGGATT
# B19: UUGUUAC (DNA:RNA)
# RNA: B3 RNA with A25U, U27G, C28U, C30A
# DNA 1: CAATCTGAATTCCGGTCTCCC
# DNA 2: TGGTGGCTACGACGGGATT
# B20: UUCCCAU (DNA:RNA)
# RNA: B3 RNA with A25U, U27C, U29C, C30A, C31U
# DNA 1: CAATCTGAATTCCGGTCTCCC
# DNA 2: TGGTGGCTACGACGGGATT
# B21: AAUGAGG (DNA:RNA)
# RNA: B3 RNA with U26A, C28G, U29A, C30G, C31G
# DNA 1: CAATCTGAATTCCGGTCTCCC
# DNA 2: TGGTGGCTACGACGGGATT
# B22: GGGCUUG (DNA:RNA)
# RNA: B3 RNA with A25G, U26G, U27G, C30U, C31G
# DNA 1: CAATCTGAATTCCGGTCTCCC
# DNA 2: TGGTGGCTACGACGGGATT
# B23: AGAAUUA (DNA:RNA)
# RNA: B1 RNA with G25A, C26G, A29U, U31A
# DNA 1: CAATCTGAATTCCGGTCTCCC
# DNA 2: TGGTGGCTACGACGGGATT
# B24: AGCCACC (DNA:RNA)
# RNA: B3 RNA with U26G, U27C, U29A
# DNA 1: CAATCTGAATTCCGGTCTCCC
# DNA 2: TGGTGGCTACGACGGGATT
# B25: CCGGCGA (DNA:RNA)
# RNA: B1 RNA with G25C, A27G, A28G, A29C, U30G, U31A
# DNA 1: CAATCTGAATTCCGGTCTCCC
# DNA 2: TGGTGGCTACGACGGGATT
# B26: GAUUAGA (DNA:RNA)
# RNA: B1 RNA with C26A, A27U, A28U, U30G, U31A
# DNA 1: CAATCTGAATTCCGGTCTCCC
# DNA 2: TGGTGGCTACGACGGGATT
# B27: CGCCGCG (DNA:RNA)
# RNA: B3 RNA with A25C, U26G, U27C, U29G, C31G
# DNA 1: CAATCTGAATTCCGGTCTCCC
# DNA 2: TGGTGGCTACGACGGGATT
# B28: CUGAUCG (DNA:RNA)
# RNA: B3 RNA with A25C, U27G, C28A, C31G
# DNA 1: CAATCTGAATTCCGGTCTCCC
# DNA 2: TGGTGGCTACGACGGGATT
# B29: GCUGCCC (DNA:RNA)
# RNA: B3 RNA with A25G, U26C, C28G, U29C
# DNA 1: CAATCTGAATTCCGGTCTCCC
# DNA 2: TGGTGGCTACGACGGGATT
# B30: UUAACCA (DNA:RNA)
# RNA: B3 RNA with A25U, U27A, C28A, U29C, C31A
# DNA 1: CAATCTGAATTCCGGTCTCCC
# DNA 2: TGGTGGCTACGACGGGATT
# B31: AUAACGA (DNA:RNA)
# RNA: B3 RNA with U27A, C28A, U29C, C30G, C31A
# DNA 1: CAATCTGAATTCCGGTCTCCC
# DNA 2: TGGTGGCTACGACGGGATT
# Target: T1, RBFOX1 RRM RbFoxmut (Fox-RRM*)
# Assay: EMSA; HiTS-Eq, 1 nM pool, 10 min; buffer printed only for the single-RNA assays: 10 mM Tris pH 7.5, 150 mM NaCl, 3.4 mM EDTA, 0.001% NP-40, 30 C
# Conditions: tags: His6 N-terminal (pET28a); label: 5' 32P
# In short: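 Purified wild-type or mutant RbFox RRM at increasing concentrations was equilibrated with 1 nM of 5′-radiolabelled RNA carrying 7 randomized nucleotides for 10 min in 50 µL. Unbound RNA was separated by 8% native PAGE and sequenced. Relative association constants came from read-count changes of each RNA species compared with the control reaction, normalised to the cognate motif.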
row,Binder,binding signal
1,B1,0.0732 KA relative to UGCAUGU
2,B2,0.0852 KA relative to UGCAUGU
3,B3,0.0686 KA relative to UGCAUGU
4,B4,0.0861 KA relative to UGCAUGU
5,B5,0.428 KA relative to UGCAUGU
6,B6,0.106 KA relative to UGCAUGU
7,B7,0.0852 KA relative to UGCAUGU
8,B8,0.0623 KA relative to UGCAUGU
9,B9,0.163 KA relative to UGCAUGU
10,B10,0.102 KA relative to UGCAUGU
11,B11,0.101 KA relative to UGCAUGU
12,B12,0.0459 KA relative to UGCAUGU
13,B13,0.133 KA relative to UGCAUGU
14,B14,0.0878 KA relative to UGCAUGU
15,B15,0.0952 KA relative to UGCAUGU
16,B16,0.0877 KA relative to UGCAUGU

row,Binder,binding signal
1,B17,0.0691 KA relative to UGCAUGU
2,B18,0.0898 KA relative to UGCAUGU
3,B19,0.126 KA relative to UGCAUGU
4,B20,0.0783 KA relative to UGCAUGU
5,B21,0.0922 KA relative to UGCAUGU
6,B22,0.371 KA relative to UGCAUGU
7,B23,0.131 KA relative to UGCAUGU
8,B24,0.0668 KA relative to UGCAUGU
9,B25,0.0907 KA relative to UGCAUGU
10,B26,0.0757 KA relative to UGCAUGU
11,B27,0.115 KA relative to UGCAUGU
12,B28,0.145 KA relative to UGCAUGU
13,B29,0.0603 KA relative to UGCAUGU
14,B30,0.102 KA relative to UGCAUGU
15,B31,0.074 KA relative to UGCAUGU
